Source: PubChem BioAssay AID624417 (National Center for Advancing Translational Sciences (NCATS), 2012)
About 6,400 (1.6%) of roughly 410,000 compounds were called active. Inconclusive results, whose numbers are uncertain, are shown with a selection of clear calls. Calls come from the whole dose curve; as a rule, active = well fitted inhibition curve with a large enough effect; inconclusive = small, poorly fitted or top-dose-only effect; inactive = no such curve, though single readings can be large or run the other way. No potency is given beside an inconclusive call; the fits are too rough.

Each molecule was assayed against Glucagon-like peptide 1 receptor (Homo sapiens) (UniProt P43220) (assay: qHTS of GLP-1 Receptor Inverse Agonists (Inhibition Mode)). Settings: HEK293 GLP-1R CRE-luciferase, luminescence, 24 h, GLP-1R form is constitutively active; activity change, negative = inhibition: at 38.3 µM (top of the series) unless noted.
In short: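 Cells are plated, allowed 12 hours at 37 deg C, then treated with compounds for 24 hr before luciferase detection reagent is added and luminescence is read after 12 min at room temperature. The HEK293 line carries constitutively active GLP-1R with a cAMP-responsive reporter.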
% is set by controls: 0 for no effect and ±100 for the full control effect; potency is the fitted concentration of half-maximal effect; tags give direction and shape of the fitted curve.
Note: nearly all actives have a fitted effect of over 55% in size.

Sequence of UniProt P43220 (P43220 whole entry, looked up): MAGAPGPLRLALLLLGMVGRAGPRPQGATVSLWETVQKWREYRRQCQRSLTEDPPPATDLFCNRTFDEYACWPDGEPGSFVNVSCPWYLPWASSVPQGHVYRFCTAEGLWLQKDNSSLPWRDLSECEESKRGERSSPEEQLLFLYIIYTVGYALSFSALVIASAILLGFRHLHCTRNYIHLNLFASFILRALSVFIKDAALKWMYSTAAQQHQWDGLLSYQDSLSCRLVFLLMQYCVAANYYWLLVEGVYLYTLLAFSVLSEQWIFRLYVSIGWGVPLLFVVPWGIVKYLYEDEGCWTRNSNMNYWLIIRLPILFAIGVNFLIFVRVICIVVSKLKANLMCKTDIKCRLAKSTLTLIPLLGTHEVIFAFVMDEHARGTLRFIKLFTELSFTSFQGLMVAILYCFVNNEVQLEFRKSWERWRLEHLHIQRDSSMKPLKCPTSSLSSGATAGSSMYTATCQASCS

| Compound | activity change, negative = inhibition | Potency |
| --- | --- | --- |
| COc1cc2ncnc(NCc3ccco3)c2cc1OC | inactive: 36.3% |  |
| CC(=O)Oc1c(Sc2ccccc2[N+](=O)[O-])c(C)nn1C(C)(C)C |  | inconclusive [inhibitor, partial curve, poor fit] |
| Cc1cc(OCC(=O)Nc2cccc(S(=O)(=O)N3CCCC3)c2)ccc1Cl |  | inconclusive [inhibitor, partial curve, poor fit] |
| Cc1cccc(-n2ccnc2SCC(=O)Nc2cccc3ccccc23)c1C |  | inconclusive [inhibitor, single point] |
| C=CCCCCCCCCC(=O)NNC1=CC(=O)CC(C)(C)C1 |  | inconclusive [inhibitor, single point] |
| COc1ccc(C(=O)Nc2ccc3c(c2)CCCN3C(=O)c2cccs2)c(OC)c1 |  | inconclusive [inhibitor, single point] |
| COc1cc(C(C)=O)ccc1OC(=O)CN1C(=O)c2ccccc2C1=O | inactive: 18.4% |  |
| CCCc1cc(C(=O)N2CCCC(C(=O)c3cc(C)c(OC)c(C)c3)C2)n(C)n1 (stereo not given) |  | inconclusive [inhibitor, single point] |
| COC(=O)c1cc(NC(=O)CC(=O)c2cccc(N)c2)cc(C(=O)OC)c1 |  | inconclusive [inhibitor, partial curve, poor fit] |
| C=CCN1[C@@H](Cc2ccccc2)COc2cc(N3CCSCC3)ccc2S1(=O)=O |  | inconclusive [inhibitor, partial curve] |
| Cc1oc2ncn(CC(C)C)c(=O)c2c1C(=O)NC(C)c1ccccc1 (stereo not given) |  | inconclusive [inhibitor, single point] |
| Cn1nc(C(F)(F)F)c(/C=N/OC(=O)c2ccccc2)c1SCc1ccccc1Cl |  | inconclusive [inhibitor, single point] |
| CCOc1ccc(NC(=O)Cn2c(=O)c(CNc3ccc(CC)cc3)cc3cc4c(cc32)OCO4)cc1 | inactive: -7.22% |  |
| O=C(Cn1cncn1)c1ccccc1Br | inactive: 24.4% |  |
| COc1ccc(Cl)cc1NC(=O)CN(C)C(=O)CCSc1ccc(C)cc1 |  | inconclusive [inhibitor, partial curve] |
| Cc1ccccc1C1CCCN(Cc2nc(C3CC3)no2)C1 (stereo not given) |  | inconclusive [inhibitor, single point] |
| O=C(CCSc1ccc(Cl)cc1)c1cccs1 |  | inconclusive [inhibitor, single point] |
| Cc1occc1C(=O)N1CCN(c2ccc(Cl)cc2)CC1 | inactive: 12.1% |  |
| NNC(=O)C(Cc1ccc(O)cc1)N1Cc2ccccc2C1=O (stereo not given) | inactive: 10.5% |  |
| CCCCNC(=S)Nc1cc(S(=O)(=O)N2CCCCC2)ccc1C |  | inconclusive [inhibitor, single point] |
| CCN(C(=O)Cn1cnc2onc(-c3ccc(F)cc3)c2c1=O)c1ccc(OC)cc1 | inactive: -2.89% |  |
| CCOC(=O)CC1(NC(=O)c2cc(COc3ccc(F)c(F)c3)on2)CCCCC1 |  | active: 10 µM |

| Compound | activity change, negative = inhibition | Potency |
| --- | --- | --- |
| CN1CCN(c2ccccc2NC(=O)c2ccc(-c3cccc(Cl)c3)o2)CC1 |  | inconclusive [inhibitor, single point] |
| O=[N+]([O-])c1cccc(-c2nn(-c3ccccc3)cc2CO)c1 |  | inconclusive [inhibitor, single point] |
| Cc1ccc(-c2cc(NC(=O)CCl)n(-c3ccccc3)n2)cc1 |  | inconclusive [inhibitor, single point] |
| COc1cccc(C(=O)COc2ccc(NC(=O)c3cccs3)cc2)c1 |  | inconclusive [inhibitor, single point] |
| OC(COc1ccccc1Br)CN1CCNCC1 (stereo not given) |  | inconclusive [inhibitor, full curve, poor fit] |
| CCOc1ccccc1CN1CCc2nc(Nc3ccc4c(c3)OCCO4)ncc2C1 |  | inconclusive [inhibitor, single point] |
| CN(C)C(=S)NC(C)(C)C | inactive: 9.53% |  |
| COc1ccc(CCNC(=O)c2cc3sccc3n2Cc2ccc(Cl)cc2)cc1OC |  | inconclusive [inhibitor, single point] |
| CCCN(CC1CC1)C(=S)NC(=O)c1ccccc1C |  | inconclusive [inhibitor, partial curve] |
| CC(C)CN(C(=O)COc1ccc(Br)cc1C=O)C1CCS(=O)(=O)C1 (stereo not given) |  | inconclusive [inhibitor, single point] |
| COc1ccc(OCCCn2cccc2/C=C2/C(=N)N3OC(C)=CC3=NC2=O)cc1 |  | inconclusive [inhibitor, single point] |
| O=C(COc1ccc(-c2nnco2)cc1)Nc1ccc(F)c(Cl)c1 |  | inconclusive [inhibitor, single point] |
| Cc1ccccc1Cc1c(C)nc2c(C(=O)NCc3ccco3)cnn2c1C | inactive: -17.2% |  |
| CCn1c(=O)cc(OCC(=O)N2CCN(c3ccc(OC)cc3)CC2)c2ccccc21 | inactive: -1.16% |  |
| CCOc1ccc(S(=O)(=O)N2CCC(C(=O)OC(C)C(=O)N(C)C3CCCCC3)CC2)cc1 (stereo not given) |  | inconclusive [inhibitor, single point] |
| Cc1cccc(-n2c(C)nc3cc(C(=O)NCCC4=CCCCC4)ccc32)c1 |  | inconclusive [inhibitor, single point] |
| O=C(NCc1nc2ccccc2[nH]1)c1c(F)cccc1F | inactive: 30.4% |  |
| CC(CNC(=O)CN1C(=O)c2cccnc2Oc2ccc(Cl)cc21)c1ccccc1 (stereo not given) |  | inconclusive [inhibitor, single point] |
| O=C(Nc1ccc(S(=O)(=O)Nc2ncccn2)cc1)c1cccc([N+](=O)[O-])c1 | inactive: 4.32% |  |
| Cc1cc(NC(=O)CCC(=O)N(CCc2ccccc2)C(C(=O)NC2CCCC2)c2ccco2)no1 (stereo not given) |  | inconclusive [inhibitor, partial curve, poor fit] |
| Cc1cc2c(cc1C)N(Cc1ccccc1)C1=NCCCN12 |  | inconclusive [inhibitor, partial curve, poor fit] |
| CCC(C)n1c(NC(=O)c2ccccc2)c(C#N)c2nc3ccccc3nc21 (stereo not given) |  | inconclusive [inhibitor, partial curve, poor fit] |

| Compound | activity change, negative = inhibition | Potency |
| --- | --- | --- |
| Cc1ccc(NC(=O)Nc2sc3nc4n(c(=O)c3c2C)CCC(C)CC4)c(Cl)c1 (stereo not given) |  | inconclusive [inhibitor, full curve, poor fit] |
| Brc1ccc(-c2csc(N/N=C/c3ccco3)n2)cc1 |  | inconclusive [inhibitor, single point] |
| CCC[C@@H]1CCCO[C@@](C(=O)NCc2ccccn2)(C(F)(F)F)C1 |  | inconclusive [inhibitor, partial curve, poor fit] |
| CCCCNC(=O)C[C@@H]1C[C@@]2(C(=O)OC)CCCCC=C2N(Cc2cccc3ccccc23)C1=O |  | inconclusive [inhibitor, single point] |
| C=CCc1cccc(CNc2cnc3ccccc3c2)c1O | inactive: -34.5% |  |
| Cc1cccc(C(=O)C(O)(c2ccccc2)C2CCCCC2=O)c1 (stereo not given) |  | inconclusive [inhibitor, partial curve, poor fit] |
| CN(c1ccccc1)c1ccc(/C=C(/CCC(=O)O)c2nc3ccccc3s2)cc1[N+](=O)[O-] |  | active: 11.2 µM |
| CCC(=O)Oc1ccc(C(=O)Nc2ccc([N+](=O)[O-])cc2)cc1 |  | inconclusive [inhibitor, single point] |
| CCN(c1ccccc1)S(=O)(=O)c1ccc(Cl)c(NC(=O)Nc2ccc(Cl)cc2C#N)c1 |  | inconclusive [inhibitor, partial curve, poor fit] |
| CS(=O)(=O)Nc1cccc(C2=NN(C(=O)c3ccccc3)C(c3cccs3)C2)c1 (stereo not given) |  | inconclusive [inhibitor, full curve, poor fit] |
| Cc1occc1C(=O)NC1CCCCCCC1 |  | inconclusive [inhibitor, partial curve, poor fit] |
| CCOC(=O)C(=NCC1CCCO1)NNc1ccccc1Cl (stereo not given) |  | inconclusive [inhibitor, full curve, poor fit] |
| Cc1ccc(NC(=O)CSCC(=O)N2CCN(c3cccc(C(F)(F)F)c3)CC2)cc1 |  | inconclusive [inhibitor, single point] |
| CCOC(=O)C1(C)Oc2ccccc2C(C(=O)OC)=C1C(=O)OC (stereo not given) | inactive: 4.66% |  |
| O=C(NCc1ccccc1)C(c1ccc(C(F)(F)F)cc1)n1c(=O)c(-c2ccccc2)nc2ccccc21 (stereo not given) |  | inconclusive [inhibitor, partial curve, poor fit] |
| Cc1ccc(N(Cc2cc3ccccc3[nH]c2=O)S(=O)(=O)c2ccccc2)cc1 |  | inconclusive [inhibitor, partial curve, poor fit] |
| O=C(CN1CCC(Cc2ccccc2)CC1)N1CCc2ccccc2C1 |  | inconclusive [inhibitor, partial curve, poor fit] |
| O=C(Cn1c(SCCOc2ccc(Cl)cc2)nc2ccccc21)N1CCCCC1 |  | inconclusive [inhibitor, single point] |
| Cc1ccc(OCC(O)CN2CCN(c3ccc(C)cc3)CC2)cc1 (stereo not given) |  | inconclusive [inhibitor, partial curve, poor fit] |
| Cc1[nH]c2ccccc2c1CCN(Cc1cccs1)C(=S)NC(C)(C)C |  | inconclusive [inhibitor, single point] |
| COc1ccccc1NC(=O)Cn1c(=O)c(CNc2ccc(C)cc2)cc2cc3c(cc21)OCCO3 | inactive: 2.15% |  |
